Test results as given in publication PMC12455566, “Structural Elucidation and Covalent Modulation of the Autorepressed Orphan Nuclear Receptor NR2F6” (ACS Chemical Biology, 2025).
Positions count from the first letter of the chain named. Ends that are not written are not given here. Peptide text beside a SMILES is read from it. * marks the point of attachment. Biotin = O=C1N[C@H]2[C@H](CS[C@H]2CCCCC(=O)*)N1; Ahx = NCCCCCC(=O)O

How the values were obtained:
NR2F6 LBD = molecular target: T1, NR2F6 LBD (Homo sapiens, UniProt P10588); assay: bio-NSD1 titration (TR-FRET)
T1 sequence (P10588 164-404): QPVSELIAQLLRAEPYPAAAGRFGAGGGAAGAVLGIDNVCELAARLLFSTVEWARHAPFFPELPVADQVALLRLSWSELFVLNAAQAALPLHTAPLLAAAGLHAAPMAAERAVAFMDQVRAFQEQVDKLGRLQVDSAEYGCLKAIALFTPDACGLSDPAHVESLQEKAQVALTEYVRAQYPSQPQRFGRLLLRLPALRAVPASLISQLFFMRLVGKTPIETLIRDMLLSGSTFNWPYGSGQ

NR2F6^E204A = assay: TR-FRET coregulator peptide recruitment, E204A; format: binding, human; conditions: 250 nM biotinylated peptide, three independent experiments
From the text: (§1) Primers were purchased from Integrated DNA Technologies. […] Mutations were confirmed by sequencing (Baseclear). […] ice. […] 1.6 Biochemical Assays […] Data recorded in triplicate. […] N-terminal

NR2F6^F211A = assay: TR-FRET coregulator peptide recruitment, F211A; format: binding, human; conditions: 250 nM biotinylated peptide, three independent experiments
From the text: as §1

MBP-NR2F6 fusion = assay: DSF of MBP-NR2F6 with coregulator peptides; format: binding, human; conditions: peptide with 2.5 µM MBP-NR2F6, DSF, pH 7.5
[1] = molecular target: T2, NSD1 peptide (FAM-labeled) FSXXLXXL motif peptide (Homo sapiens, UniProt Q96L73); assay: fluorescence anisotropy
T2 chain: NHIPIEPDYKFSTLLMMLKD

[2] = molecular target: T3, NSD1 peptide (biotinylated) FSXXLXXL motif peptide (Homo sapiens, UniProt Q96L73, biotinylated NSD1 peptide); assay: TR-FRET
T3 chain: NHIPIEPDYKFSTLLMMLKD

[3] = molecular target: T4, BCL11A-1 peptide (RID1) F/YSXXLXXL/Y motif peptide (RID1) (Homo sapiens, UniProt Q9H165); assay: TR-FRET displacement of bio-NSD1
T4 chain: Ac-EPPAMDFSRRLRELAGNT

[4] = molecular target: T5, NSD1 peptide (FAM-labeled) FSXXLXXL motif peptide (Homo sapiens, UniProt Q96L73, FAM-labeled NSD1 peptide); assay: fluorescence anisotropy
T5 chain: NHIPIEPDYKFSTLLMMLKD

For `CC[C@H](C)[C@H](NC(=O)[C@@H]1CCCN1C(=O)[C@@H](NC(=O)[C@H](Cc1c[nH]cn1)NC(=O)[C@H](CC(N)=O)NC(=O)[C@H](CCC(N)=O)NC(=O)[C@H](CO)NC(=O)[C@H](CO)NC(=O)[C@H](C)NC(=O)CCCCCNC(=O)CCCC[C@@H]1SC[C@@H]2NC(=O)N[C@@H]21)[C@@H](C)CC)C(=O)N[C@@H](CCC(=O)O)C(=O)N1CCC[C@H]1C(=O)N[C@@H](CC(=O)O)C(=O)N[C@@H](Cc1ccc(O)cc1)C(=O)N[C@@H](CCCCN)C(=O)N[C@@H](Cc1ccccc1)C(=O)N[C@@H](CO)C(=O)N[C@H](C(=O)N[C@@H](CC(C)C)C(=O)N[C@@H](CC(C)C)C(=O)N[C@@H](CCSC)C(=O)N[C@@H](CCSC)C(=O)N[C@@H](CC(C)C)C(=O)N[C@@H](CCCCN)C(=O)N[C@@H](CC(=O)O)C(=O)N[C@@H](CCSC)C(=O)N[C@@H](Cc1c[nH]cn1)C(=O)N[C@@H](CC(=O)O)C(=O)N[C@@H](CO)C(=O)N[C@@H](CCCCN)C(=O)N[C@H](C(N)=O)[C@@H](C)O)[C@@H](C)O` [bio-NSD1] ({Biotin-Ahx}-ASSQNHIPIEPDYKFSTLLMMLKDMHDSKT-NH2), the Kd (NR2F6 LBD) was 1.8 ± 0.1 µM.

With “Ac-ENVYSQWLAGYAASRQLKD-NH2 (N-terminus and C-terminus assumed) [BCL11A-2]” the “recruitment of coregulator peptide (in words)” value (NR2F6^E204A) was “failed to induce recruitment”, the “recruitment of coregulator peptide (in words)” value (NR2F6^F211A) was “failed to induce recruitment” and the “effect on protein melting temperature (in words)” value (MBP-NR2F6 fusion) was “increased the protein melting temperature”.

B1: NR2F6 LBD (protein)
chain: PVSELIAQLLRAEPYPAAAGRFGAGGGAAGAVLGIDNVCALAARLLFSTVEWARHAPFFPELPVADQVALLRLSWSELFVLNAAQAALPLHTAPLLAAAGLHAAPMAAERAVAFMDQVRAFQEQVDKLGRLQVDSAEYGCLKAIALFTPDACGLSDPAHVESLQEKAQVALTEYVRAQYPSQPQRFGRLLLRLPALRAVPASLISQLFFMRLVGKTPIETLIRDMLLSG
In the case of B1, the Kd [1] is reported as over 150 µM.

B2: NR2F6 LBD (protein)
chain: B1 chain with A40E, F47A
For B2, the Kd [1] was over 150 µM.

B3: NR2F6 LBD (protein)
chain: B1 chain with A40E
With B3 the Kd [2] was 1.8 µM, the IC50 [3] was 52 µM and the Kd [4] was 12.7 µM.
